Measurements reported in patent US20230278972A1, “SUBSTITUTED HALOALKYL SULFONANILIDE HERBICIDES” (FMC Corporation, priority 2020, published 2023).

Columns and labels:
[1] = system: sedge, umbrella (small-flower umbrella sedge, Cyperus difformis); test: Test B1 flooded paddy test, sedge, umbrella; format: in vivo; conditions: 250 g ai/ha, Flood, applied to paddy water, 2-leaf stage, visually evaluated after 10 to 14 days
Text: A dash (-) response means no test result.

[2] = system: ducksalad (Heteranthera limosa); test: Test B flooded paddy test, ducksalad; conditions: Flood, 250 g ai/ha; visual rating after 13 to 15 days; scale of 0 to 100 where 0 is no effect and 100 is complete control
[3] = system: sedge, umbrella (small-flower umbrella sedge, Cyperus difformis); test: Test B flooded paddy test, sedge, umbrella; conditions: Flood, 250 g ai/ha; visual rating after 13 to 15 days; scale of 0 to 100 where 0 is no effect and 100 is complete control
rice (Oryza sativa) = test: Test B flooded paddy test, rice; conditions: Flood, 250 g ai/ha; visual rating after 13 to 15 days; scale of 0 to 100 where 0 is no effect and 100 is complete control
[4] = system: barnyardgrass (Echinochloa crus-galli); test: Test B flooded paddy test, barnyardgrass; conditions: Flood, 250 g ai/ha; visual rating after 13 to 15 days; scale of 0 to 100 where 0 is no effect and 100 is complete control

Row | SMILES | Plant response rating, Sedge, Umbrella (0 to 100 scale, 0 is no effect, 100 is complete control) [1] | Plant response rating, Ducksalad [2] | Plant response rating, Sedge, Umbrella [3] | Plant response rating, Rice (rice (Oryza sativa)) | Plant response rating, Barnyardgrass [4]
1 | Cc1cc(C)c(N2CCC3(CCC(C(F)(F)F)CC3)C2=O)cc1NS(=O)(=O)C(F)(F)F (stereo not drawn) [Compound 400] | 95 | – | – | – | –
2 | Cc1cc(C)c(N(COC(=O)C(C)(C)C)S(=O)(=O)C(F)(F)F)cc1C1=NOC2(C)CCCC12 (stereo not drawn) [Compound 341] | 95 | – | – | – | –
3 | Cc1cc(C2CC2)c(NS(=O)(=O)C(F)(F)F)cc1C1=NOC2(CCCC2)C1 [Compound 313] | 0 | – | – | – | –
4 | COC1CCC2(CC1)CCN(c1cc(NS(=O)(=O)C(F)(F)F)c(C)cc1C)C2=O (stereo not drawn) [Compound 398] | 90 | – | – | – | –
5 | Cc1cc(C)c(N(COC(=O)OC(C)(C)C)S(=O)(=O)C(F)(F)F)cc1C1=NOC2CCCC12 (stereo not drawn) [Compound 316] | 90 | – | – | – | –
6 | Cc1c(C(=O)N2CCC(Cl)CC2)cc(N(COC(=O)C(C)(C)C)S(=O)(=O)C(F)(F)F)c(C)c1C [Compound 359] | 75 | – | – | – | –
7 | CCC1ON=C(c2cc(N(C(=O)OCC(C)C)S(=O)(=O)C(F)(F)F)c(C)cc2C)C1CC (stereo not drawn) [Compound 345] | 95 | – | – | – | –
8 | Cc1cc(C)c(N2CC3(CCCCC3)CC2=O)cc1NS(=O)(=O)C(F)(F)F [Compound 392] | 20 | – | – | – | –
9 | Cc1cc(C)c(N(COC(=O)C(C)C)S(=O)(=O)C(F)(F)F)cc1C1=NOC2CCCC12 (stereo not drawn) [Compound 308] | 95 | – | – | – | –
10 | Cc1c(NS(=O)(=O)C(F)(F)F)cc(C(=O)N2CCC(F)(F)CC2)c(C)c1C [Compound 357] | 75 | – | – | – | –
11 | COCC1CC(c2cc(NS(=O)(=O)C(F)(F)F)c(C)cc2C)=NO1 (stereo not drawn) [Compound 319] | 80 | – | – | – | –
12 | Cc1cc(F)c(C2=NOC3CCCC23)cc1NS(=O)(=O)C(F)(F)F (stereo not drawn) [Compound 310] | 0 | – | – | – | –
13 | C#CCN(C)C(=O)c1cc(NS(=O)(=O)C(F)(F)F)c(Cl)c(F)c1C [Compound 337] | 95 | – | – | – | –
14 | COC1CCN(C(=O)c2cc(NS(=O)(=O)C(F)(F)F)c(C)c(C)c2C)CC1 [Compound 367] | 98 | – | – | – | –
15 | CCOC(=O)N(c1cc(C(=O)N2CCOCC2)c(C)c(C)c1C)S(=O)(=O)C(F)(F)F [Compound 325] | 100 | – | – | – | –
16 | COC1CCCN(C(=O)c2cc(N(C(=O)C(C)C)S(=O)(=O)C(F)(F)F)c(C)cc2C)C1 (stereo not drawn) [Compound 91] | – | 55 | 55 | 0 | 0
17 | COc1c(Cl)nn(C)c(=O)c1-c1cc(NS(=O)(=O)C(F)(F)F)c(C)cc1C [Compound 64] | – | 0 | 0 | 0 | 0
18 | Cc1cc(Cl)c(C2=NOC3(CCCC3)C2)cc1N(S(=O)(=O)C(F)(F)F)S(=O)(=O)C(F)(F)F [Compound 186] | – | 0 | 0 | 0 | 0
19 | CC(=O)N(c1cc(N2CCC3(CCCCC3)C2=O)c(C)cc1C)S(=O)(=O)C(F)(F)F [Compound 265] | – | 70 | 75 | 0 | 25
20 | COC1CCCN(C(=O)c2cc(N(COC(C)=O)S(=O)(=O)C(F)(F)F)c(C)cc2C)C1 (stereo not drawn) [Compound 96] | – | 60 | 65 | 0 | 45
21 | Cc1cc(C)c(N(S(=O)(=O)C(F)(F)F)S(=O)(=O)C(F)(F)F)cc1C1=NOC2CCCC12 (stereo not drawn) [Compound 99] | – | 80 | 95 | 15 | 65

Row | SMILES | Plant response rating, Sedge, Umbrella (0 to 100 scale, 0 is no effect, 100 is complete control) [1] | Plant response rating, Ducksalad [2] | Plant response rating, Sedge, Umbrella [3] | Plant response rating, Rice (rice (Oryza sativa)) | Plant response rating, Barnyardgrass [4]
22 | COc1ccnn(-c2cc(NS(=O)(=O)C(F)(F)F)c(C)cc2C)c1=O [Compound 60] | – | 0 | 0 | 0 | 0
23 | CCn1cc(-c2cc(NS(=O)(=O)C(F)(F)F)c(C)cc2C)c(=O)n(C)c1=O [Compound 32] | – | 45 | 65 | 70 | 0
24 | CCn1nccc(-c2cc(NS(=O)(=O)C(F)(F)F)c(C)cc2C)c1=O [Compound 79] | – | 0 | 85 | 20 | 0
25 | Cc1c(C(=O)N2CCOCC2)cc(N(S(=O)(=O)C(F)(F)F)S(=O)(=O)C(F)(F)F)c(C)c1F [Compound 174] | – | 60 | 55 | 0 | 0
26 | Cc1cc(C(=O)N2CCOC(C)(C)C2)cc(NS(=O)(=O)C(F)(F)F)c1Cl [Compound 2] | – | 65 | 70 | 35 | 0
27 | CC(=O)OCN(c1cc(C2=NOC3(CCCC3)C2)c(C)cc1C)S(=O)(=O)C(F)(F)F [Compound 218] | – | 35 | 90 | 0 | 20
28 | Cc1cc(C)c(C2=NOC3(CCC3)C2)cc1NS(=O)(=O)C(F)(F)F [Compound 228] | – | 75 | 95 | 0 | 0
29 | Cc1cc(Cl)c(C(=O)N(C)C)cc1N(S(=O)(=O)C(F)(F)F)S(=O)(=O)C(F)(F)F [Compound 256] | – | 60 | 95 | 0 | 0
30 | COC1CCCN(C(=O)c2cc(NS(=O)(=O)C(F)(F)F)c(C)cc2C)CC1 (stereo not drawn) [Compound 137] | – | 50 | 75 | 40 | 35
31 | Cc1cc(C)c(C(=O)N2CCC(CC(F)(F)F)CC2)cc1NS(=O)(=O)C(F)(F)F [Compound 234] | – | 0 | 0 | 0 | 0
32 | Cc1cc(C)c(-c2ccnn(CC(F)(F)F)c2=O)cc1NS(=O)(=O)C(F)(F)F [Compound 57] | – | 30 | 85 | 25 | 15
33 | COC(=O)N(c1cc(-c2ccnn(C)c2=O)c(C)cc1C)S(=O)(=O)C(F)(F)F [Compound 53] | – | 0 | 0 | 0 | 0
34 | Cc1cc(Cl)c(NS(=O)(=O)C(F)(F)F)cc1C(=O)N1CCC(Cl)CC1 [Compound 224] | – | 75 | 90 | 0 | 15
35 | Cc1cc(C)c(N(S(=O)(=O)C(F)(F)F)S(=O)(=O)C(F)(F)F)cc1C(=O)N1CCC(F)(F)CC1 [Compound 210] | – | 65 | 95 | 15 | 10
36 | Cc1cc(C)c(N(S(=O)(=O)C(F)(F)F)S(=O)(=O)C(F)(F)F)cc1C1=NOC2(CCC(C)(C)CC2)C1 [Compound 139] | – | 0 | 0 | 0 | 0
37 | Cc1cc(C)c(N(S(=O)(=O)C(F)(F)F)S(=O)(=O)C(F)(F)F)cc1-c1cn(C)c(=O)n(C)c1=O [Compound 42] | – | 15 | 75 | 15 | 0
38 | Cc1cc(C)c(C(=O)N2CCC(F)(F)C2)cc1NS(=O)(=O)C(F)(F)F [Compound 202] | – | 75 | 90 | 0 | 0
39 | COC(=O)N(c1cc(N2CCC3(CCCCC3)C2=O)c(C)cc1C)S(=O)(=O)C(F)(F)F [Compound 266] | – | 0 | 0 | 0 | 0
40 | Cc1cc(C)c(C2=NOC3(CCOCC3)C2)cc1NS(=O)(=O)C(F)(F)F [Compound 177] | – | 70 | 80 | 0 | 0
41 | COC1CCN(C(=O)c2cc(NS(=O)(=O)C(F)(F)F)c(Cl)cc2C)CC1 [Compound 246] | – | 70 | 85 | 30 | 15
42 | Cc1cc(C)c(N(S(=O)(=O)C(F)(F)F)S(=O)(=O)C(F)(F)F)cc1-c1ccnn(C)c1=O [Compound 76] | – | 10 | 45 | 45 | 35
